The results in this text go back to PubChem BioAssay (NCI).

Where “and” joins values, the source holds several entries; their conditions need not be identical. Equal values may be shown once.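 Interpolation was linear, between the two tested concentrations surrounding the appropriate level; five concentrations were tested over 48 hours in 96-well plates. GI50 is the concentration that inhibits growth by half. At the TGI there is no net growth.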

The assay relates to NCI-H322M lung. Kind of assay: NCI tumour cell line growth inhibition, 48 h.
With `CN1CCN(P2(=S)Oc3ccc4ccccc4c3-c3c(ccc4ccccc34)O2)CC1`, the TGI was above 100 µM.

The molecule `CC1=C(C(=O)Nc2ccc(Cl)c(Cl)c2)C(c2ccc([N+](=O)[O-])cc2)C(C(=O)Nc2ccc(Cl)c(Cl)c2)=C(C)N1` came in with a TGI above 100 µM.

`CCOC(=O)C1Nc2ccccc2[C@H]2OCC[C@@H]12` (stereo partly drawn) gave a TGI above 100 µM.

`Cn1ccnc1Oc1ccc(Cl)cc1` gave a TGI of 40.2 µM.

For the molecule `CO/N=C1/c2sccc2[C@H](NC(=O)C(Cc2ccccc2)NC(=O)OC(C)(C)C)[C@@H]1O` (stereo partly drawn), the TGI is above 100 µM.

On to `CCOC(=O)c1cc2c(cc1Cl)SC(=Nc1ccccc1)N(S(=O)(=O)c1ccc(Br)s1)S2(=O)=O`, for which the GI50 is 20 µM and the TGI is 50 µM.

On to `C1CSCCSCCCSCCSCCCSCCSCCCSCCSC1`, for which the TGI is above 100 µM.

Consider `OC(c1cccnc1Cl)c1nc2ccccc2c2ccnc(Cl)c12` (stereo not drawn), for which the TGI was above 100 µM.

The molecule `Cc1ccc(NC(=O)C(=O)C(C(=O)/C=C/c2ccccc2)C2OC(=O)c3ccccc32)c(C)c1` (stereo not drawn) had a TGI above 100 µM.

Molecule `NC(N)=NCCC(O)(P(=O)(O)O)P(=O)(O)O` displayed a TGI above 100 µM.

Molecule `Clc1ccc2oc(CCc3ccccc3)nc2c1` showed a TGI above 100 µM.

Take `C=C1[C@@H](O)O[C@H]2[C@H]1C[C@H](OC(C)=O)[C@]13C(=O)O[C@H]4C[C@](C)(O)[C@H]([C@H]41)C31C=C(C)[C@]2(O)O1`: the GI50 was above 100 µM and the TGI was above 100 µM.

For `COc1cc2c3c([nH]c2c(OC)c1OC)CCN(Cc1ccccc1)C3`, the TGI is above 100 µM.

The molecule `COc1cccc(C(=O)C#Cc2cnc(OC)nc2OC)c1` displayed a TGI of 33.1 µM.

`O=C1N[C@@H]2C(=C[C@H](O)[C@@H](O)[C@H]2O)c2cc3c(c(O)c21)OCO3` displayed a TGI of 0.0903 µM.

Consider `C=CCc1cc(Nc2c3ccc(Cl)cc3nc3ccc(OC)cc23)cc(CN(CC)CC)c1O`, for which the GI50 is 3.54 µM and the TGI is 15.1 µM.

In turn, `CC(=O)/C(=C\c1ccccc1O)C(=O)Nc1ccccc1C` displayed a TGI of 57.2 µM.

`O=C1c2ccccc2N2OC3(N4CCCC4)CCCCC3C12c1ccccc1` (stereo not drawn): the TGI was above 100 µM.

With `COc1ccc(/C=C(/C)[N+](=O)[O-])cc1OC`, the GI50 is 5.15 µM and 4.18 µM; the TGI was 10.2 µM and 15.1 µM.

The molecule `O=C(NCCNCCO)c1cccc2ccc(-c3ccccc3)nc12` returned a TGI of 20.2 µM.

The molecule `COc1ccc(CNc2cc(=O)n(C)c(=O)[nH]2)cc1` had a TGI above 100 µM.

Turning to `Cc1cnc2c(c1C)C(=O)c1ccccc1C2=O`, the TGI was above 100 µM.

`N#CCCNc1nonc1-c1nc2ccccc2n1CC(=O)c1ccc(NC(=O)[C@@H](N)CCCCN)cc1`: the GI50 was 0.232 µM and the TGI is above 100 µM.

With `CCC(=O)Nc1ccc(N2C(=O)/C(=C/c3ccc(OC)cc3)N=C2c2ccccc2)cc1`, the GI50 is 14.7 µM and the TGI is above 50 µM.

Regarding `COc1cc2c(cc1F)C(c1ccccc1Cl)=Nc1c(n[nH]c1C)N2`, the GI50 was 12.6 µM and the TGI was 27.4 µM.

`CCC1C(c2ccccc2O)c2cc3c(cc2OC1N1CCOCC1)OCO3` (stereo not drawn) showed a TGI of 29.7 µM.

In the case of `Oc1c(-c2cc(C(F)(F)F)[nH]n2)cc(Cl)c(OCc2ccc(Cl)cc2)c1-c1ccc(Cl)c(C(F)(F)F)c1`, the GI50 was 0.564 µM and the TGI amounted to 5.55 µM.

Molecule `CC1(C)CC(=O)c2c(nc3c4c([nH]c(-c5ccc(Br)cc5)c24)CC(C)(C)C3)C1` gave a TGI above 100 µM.

In the case of `Nc1ncnc2c1ncn2[C@@H]1O[C@H](COC(c2ccccc2)(c2ccccc2)c2ccccc2)[C@@H](OC(=S)Oc2ccccc2)[C@@H]1F`, the TGI is 33.5 µM.

On to `Nc1nc(N)c(CCCCc2ccccc2)c(N)n1`, for which the TGI was above 100 µM.

Molecule `COC(=O)C(C(=O)C(=O)Nc1ccc([N+](=O)[O-])cc1)c1nc2ccc([N+](=O)[O-])cc2[nH]c1=O` (stereo not drawn) returned a TGI above 100 µM.

On to `CN=C(Nc1cccc(C(F)(F)F)c1)SCc1ccc(N=C=S)cc1`, for which the TGI turned out to be 31.3 µM.

`O=C(Nc1ccccc1OC(=O)c1ccccc1)c1ccccc1`: the GI50 is 22.4 µM and the TGI is above 100 µM.

The molecule `O=C(O)c1cc(CCc2cc(O)ccc2O)ccc1O` displayed a TGI above 100 µM.
